Laboratory results reported in the supplement of paper PMC11417369.
± gives the standard deviation of the averaged measurements. The list shows a part of the results.

What follows are sequences tested on PfAP2-G AP2 domain (GST-tagged) (assay: gcPBM binding intensity (ln(normalized median fluorescence intensity)); higher = stronger DNA binding).
Outline: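 Binding intensity values are the highest Masliner-normalised natural-log median intensity among replicate spots of either probe orientation. The binding step lasted 1 h in 1× PBS with 1% milk, 0.2 mg/ml BSA, 0.5% salmon testes DNA and 0.03% Triton X-100, using GST-tagged P. falciparum DNA-binding domains expressed in E. coli on an Agilent 4 × 180k array of primer-extended double-stranded 36-bp intergenic genomic probes plus negative controls. Alexa488 anti-GST antibody and a 488 nm scan detected bound protein.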

“CGTTATATATTTTATAGTACTTTTTGTAAATTTTTT [XGTACX_site7682]” and “ATTAATAAGAAGAAAAGTACAAAACAAAAAGATATA [XGTACX_site7473]” are within error of each other in “gcPBM binding intensity (ln)” value: 11.1 ± 0.67 for the first, 11.2 ± 0.64 for the second.

First: TATTTTCTCTTAAAAAGTACTCATATATACATTTAT [XGTACX_site7748]
Second: TTTAGTTCATACTATGCACACTACGTATATTTTTAA [CACACA_site5484]
The “gcPBM binding intensity (ln)” value of the first is higher: 11.2 ± 0.88 for the first, 10.11 ± 0.028 for the second.

First: ATAACATACATAACAACACACAATATTTATAGGTAT [CACACA_site6243]
Second: TATTTAAGAGTATGAACACACATCATACCCATATAA [CACACA_site5911]
The “gcPBM binding intensity (ln)” value of the first is lower: 9.865 ± 0.007 for the first, 10.2 ± 0.26 for the second.

First: CATATAAATAAATATACATGCATACATACATATATA [TGCATGCA_site713]
Second: TGTTCTAATATTTGTTGTACGTTTACGTTTCTCTCT [XGTACX_site18]
The “gcPBM binding intensity (ln)” value of the first is lower: 9.8 ± 0.042 for the first, 11.4 ± 1.1 for the second.

Compared with “AACATTTTAAAATAATGTACTTGAAAAAAAAACTAC [XGTACX_site8894]”, “TTTTATAATTTGAGAACATGCAACATAAATATAAAG [TGCATGCA_site965]” is lower in “gcPBM binding intensity (ln)” value: 11.1 ± 0.67 for the first, 10.17 ± 0.071 for the second.

“TATAATATATGAAAAAGTACAAATATTTCGATGGTC [XGTACX_site129]” and “TTAATTTATGTTAATGGTACGTAAATGCATTTATTT [XGTACX_site3002]” are the same in “gcPBM binding intensity (ln)” value: 11.1 ± 0.7 for the first, 11.1 ± 0.79 for the second.

Going from “ATTTAACCAAATAATATATTTAAAAAATAGTCACAT [CACACA_negctrl_site274]” to “ATATTATATAACTTTTGTACGAACTATTTTATATAT [XGTACX_site6]”, the “gcPBM binding intensity (ln)” value rises from 10.1 ± 0.14 to 11 ± 0.53.

First: ACCTATGTATATTATACACACTCCAAACTATTCTTT [CACACA_site6939]
Second: AATGAAGACTTTTTTACACACTTCATATATTATATA [CACACA_site2034]
The “gcPBM binding intensity (ln)” value of the first is higher: 10.16 ± 0.049 for the first, 9.925 ± 0.021 for the second.

Going from “TATTTATTTATATATGCATGCTAATAATTATAACAT [TGCATGCA_site988]” to “TTTAGAGAAGTCAAGTGTACATATAAAATAATTCAC [XGTACX_site4997]”, the “gcPBM binding intensity (ln)” value rises from 9.84 ± 0.014 to 11.4 ± 0.88.

First: ATAAAAATAAATAAATTATATAAATGTAATATGAAA [GTGCAC_negctrl_site663]
Second: AAAAAAAAATATATATGTACATATGTATAATAAAAA [XGTACX_site2110]
The “gcPBM binding intensity (ln)” value of the first is lower: 9.7 ± 0.14 for the first, 11.1 ± 0.6 for the second.

Compared with “GTATAATTGGAAATTACACACCTTATAATGTAACAT [CACACA_site6091]”, “AATGATTTTAAAAAATGTACTTTATAAACAAAATTA [XGTACX_site3803]” is higher in “gcPBM binding intensity (ln)” value: 10 ± 0.12 for the first, 11 ± 0.67 for the second.

Compared with “TAAAGTGTCAAATTCACACACATATATATATATATA [CACACA_site1380]”, “TTTTTTTTTGTTAGTTGTACGTTAAATGAATTTACT [XGTACX_site7675]” is higher in “gcPBM binding intensity (ln)” value: 9.99 ± 0.26 for the first, 11.3 ± 0.86 for the second.

Going from “TAAATTAGAATAAATACACACAAATTAGAATTCTAT [CACACA_site7781]” to “ATATTTTCAGTTCTCCATTATGTTCCCATTATTTTT [CACACA_negctrl_site990]”, the “gcPBM binding intensity (ln)” value rises from 9.97 ± 0.028 to 10.3 ± 0.15.

CATGAATATTTTAATGTGCACATTTATCATTATATG and “ATGTAATAAATATACACACACAAATATATATATATA [CACACA_site2395]” are within error of each other in “gcPBM binding intensity (ln)” value: 10.3 ± 0.16 for the first, 10.1 ± 0.16 for the second.

“CCAAACTAAATGTACACACATACATAAATATAAATA [CACACA_site1141]” and “ATCATGTTATATATATGTACTAATAATATAATATAA [XGTACX_site1326]” are within error of each other in “gcPBM binding intensity (ln)” value: 11.4 ± 1.1 for the first, 11.1 ± 0.59 for the second.

“ATATATATATATATATGGTAAAGTAAAAGGAAATAC [XGTACX_negctrl_site45]” and “TACTAACTTTTTAAAAGTACAGAACCATAACCATAA [XGTACX_site7182]” are within error of each other in “gcPBM binding intensity (ln)” value: 10.4 ± 0.2 for the first, 11.4 ± 0.86 for the second.

“GAATAATCTAGAAACACACAAACACGACAAAAGAAA [CACACA_site4135]” and “AGTTTATATTATTAAAGTACATATATATATTCTTAA [XGTACX_site3164]” are within error of each other in “gcPBM binding intensity (ln)” value: 10.2 ± 0.15 for the first, 11.1 ± 0.76 for the second.

“AGTCGAATGATGTACACACATACAAAACATTTATGC [CACACA_site4022]” and “ATATTCAATATATTATGTACACATATATGAGGATAT [XGTACX_site7019]” are within error of each other in “gcPBM binding intensity (ln)” value: 11.2 ± 0.81 for the first, 11.4 ± 0.7 for the second.

Going from “AAACTTTTTTTAAAAACACACATATATATTTATATA [CACACA_site4092]” to “TATATATTATAAAAGAGTACAGAAAGAAAAAAAAAT [XGTACX_site8305]”, the “gcPBM binding intensity (ln)” value rises from 9.92 ± 0.028 to 11.5 ± 0.85.

“AAATATCTACATATTTGTACATATTTATACATATTT [XGTACX_site6300]” and “GAAAAGTAGACAATATGTACATATAGTATTTATAAA [XGTACX_site878]” are within error of each other in “gcPBM binding intensity (ln)” value: 10.7 ± 0.45 for the first, 11.1 ± 0.69 for the second.

Going from “AGCAACCCCCTAGCTACACACATATAGATATAAATA [CACACA_site6577]” to “GTTTAAAATCTTTGCACACATATAAATAAATATATT [CACACA_site2555]”, the “gcPBM binding intensity (ln)” value falls from 10.9 ± 0.35 to 10.2 ± 0.33.

First: AGTATATTAATATAATGTACAAACGTTTATTTTGTA [XGTACX_site5980]
Second: ACATATAAATTATATACACACAATAATATATATATA [CACACA_site1384]
The “gcPBM binding intensity (ln)” value of the first is higher: 10.7 ± 0.37 for the first, 9.87 ± 0.13 for the second.

“TAAAAAAGTTATATTACACACTTTATTGGTTAACTT [CACACA_site653]” and “ATAATGTTTCTTTCAACACACAAAAAATGAACCCAT [CACACA_site4947]” are within error of each other in “gcPBM binding intensity (ln)” value: 10 ± 0.14 for the first, 10.6 ± 0.51 for the second.

“TATTTATAAAAAAAATGTACATTTATGTATAAGCTA [XGTACX_site3266]” and “TAAATTTATTAATCAAGTACAAAATAAATTTTTATA [XGTACX_site2745]” are within error of each other in “gcPBM binding intensity (ln)” value: 10.8 ± 0.54 for the first, 10.7 ± 0.67 for the second.

Going from “AATATCAATATTATATGTACTTATAATTTCAATGTA [XGTACX_site2423]” to “AAAATTTAATATAATGCACACATAAAAAAAAAATCA [CACACA_site7882]”, the “gcPBM binding intensity (ln)” value falls from 11.3 ± 0.79 to 9.97 ± 0.12.

“TATATATAGAAACACACACACACATATATATATATA [CACACA_site4116]” and “TATAATAGCTTCTTTACACACACCATTTTTTTTTTT [CACACA_site1456]” are within error of each other in “gcPBM binding intensity (ln)” value: 10.1 ± 0.24 for the first, 9.95 ± 0.042 for the second.

“CTTACATATTACATATGTACATATACACCTTATGTC [XGTACX_site4679]” and “TATAAATTTTGTTTAGCACACACACCGACATACATA [CACACA_site9033]” are within error of each other in “gcPBM binding intensity (ln)” value: 11 ± 0.43 for the first, 10.5 ± 0.46 for the second.

“ATGTTGTACAGACACACACACAAAAAAAAAATAAAA [CACACA_site7184]” and “ATATATATATATATATGTACATACATACAATCATAT [XGTACX_site6410]” are within error of each other in “gcPBM binding intensity (ln)” value: 11.1 ± 1.1 for the first, 11.3 ± 0.7 for the second.

With “CATCAAGTGAATTGTTGTACTTTACATTGTTTTTAT [XGTACX_site7261]” the “gcPBM binding intensity (ln)” value was 11.1 ± 0.62.
